42 molecules from ChEMBL document CHEMBL4888484, “Replenishing the malaria drug discovery pipeline: Screening and hit evaluation of the MMV Hit Generation Library 1 (HGL1) against asexual blood stage Plasmodium falciparum ,using a nano luciferase reporter read-out” (2022) can be followed below.

Each structure is given as a SMILES string. The campaign covered roughly 150,000 compounds. About 540 (0.36%) showed an effect of 50% or more. The list shows a part of the results.

The test system of this test is Plasmodium falciparum. The test can be described thus: Primary screen in NF54 nanoGlo assay, in single point, at 2uM, 72h; a lower Z score goes with more inhibition. It counts as functional, Erythrocyte. The settings on record: timepoint 72 hour.
For `Cc1ccc(C[C@H](NC(=O)c2cccnc2)c2ccccn2)cc1`, the “% Inhibition” value is on record as -19% and the Z score was found to be 2.44.
For the molecule `O=C(Nc1ccccc1N1CCOCC1)[C@@H]1CC=CCC1`, the “% Inhibition” value is recorded as 36% and the Z score is -4.1.
With `COCCNC(=O)Nc1nnc(-c2ccsc2)o1`, the “% Inhibition” value is listed as -16% and the Z score is 2.4.
For `Cc1ncc2c(c1CNC(=O)c1c3c(nn1C)CCCC3)CCNC2`, in that order: 5% and -0.8.
With `COCC1(NC(=O)[C@H](C)n2ccnc2C)CCCC1`, the “% Inhibition” value was -1% and the Z score was found to be 0.14.
On to `CC(C)COc1ccccc1[C@H]1CC(O)=Nc2nc(N3CCOCC3)sc21`, for which the “% Inhibition” value came out at 31% and the Z score is given as -3.47.
Regarding `O=C(NCCOc1ccccc1)c1ccc2ccccc2n1`, the “% Inhibition” value is reported as -11% and the Z score worked out at 1.33.
On to `Cc1ccc2c(c1)C1(c3ccccc3)Nc3ccc(C)cc3C1(c1ccccc1)N2` (centres undefined), for which the “% Inhibition” value amounted to 1% and the Z score is reported as -0.11.
For `Cc1ccc(OCC[C@H]2CCN(C(=O)C(C)C)C2)cc1`, the “% Inhibition” value was -4% and the Z score was 0.83.
Consider `COC[C@]1(C(=O)NCCC(=O)NCc2cccnc2)CCN(C(=O)OC(C)(C)C)C1`, for which the “% Inhibition” value was -18% and the Z score is 1.9.
With `Cc1cc(C)cc([C@@H](NC(=O)C(C)C)C(=O)O)c1`, the “% Inhibition” value is -16% and the Z score worked out at 2.35.
For the molecule `COc1ccc(NC(=O)Cn2c(N3CCCCC3)nc(C)cc2=O)cc1Cl`, the “% Inhibition” value was -12% and the Z score is on record as 1.26.
The corresponding values for `OC(CNC(CC1CCOC1)c1ccccc1)c1cc(F)ccc1F` (centres undefined) are -2% and 0.38.
As to `CC1(C(=O)N2CCCC(OCC3CC3)C2)CCC(=O)NC1` (centres undefined), the “% Inhibition” value is on record as -4% and the Z score came out at 0.56.
As to `CN(C)c1ccc(C(=O)N[C@H]2CC(C)(C)[C@@H]3C[C@@](C)(O)CC[C@]23CCC(=O)NCCN2CCOCC2)cc1`, the “% Inhibition” value turned out to be 28% and the Z score is -3.2.
With `CCc1ncc(S(=O)(=O)N[C@H]2CCCNC2=O)s1`, the “% Inhibition” value was -8% and the Z score turned out to be 1.72.
For `O=C(c1csc(N2CCN(c3ccc(F)cc3)CC2)n1)N1CCOCC1`, in that order: -3% and 0.44.
For the molecule `O=S(=O)(CC[C@H]1CCCO1)N1CCCCC1`, the “% Inhibition” value stood at 2% and the Z score is given as -0.32.
Turning to `COc1ccc(NC(=O)N(C)CC[C@H](C)O)cc1Br`, the “% Inhibition” value is given as -31% and the Z score came to 3.68.
Take `Cc1nc([C@@H]2CN(C)C(=O)N2)n(C(C)(C)C)n1`: the “% Inhibition” value was -12% and the Z score is reported as 1.64.
As for `Cc1cc(NS(=O)(=O)C[C@H](C)c2ccccc2)no1`, the “% Inhibition” value is reported as -6% and the Z score amounted to 0.82.
As to `O=C(CNC1CCCCC1)N1c2ccccc2C=Cc2ccccc21`, the “% Inhibition” value was -14% and the Z score is recorded as 1.79.
On to `Cc1ccccc1C(=O)N(Cc1ccc(Cl)cc1)[C@H]1CCS(=O)(=O)C1`, for which the “% Inhibition” value is -4% and the Z score came out at 0.35.
For `Cc1nn(CCO)c(C)c1Br`, in that order: -49% and 5.73.
Regarding `Fc1ccc([C@@]2(c3noc(-c4ccsc4)n3)CCOC2)cc1`, the “% Inhibition” value is on record as -9% and the Z score is reported as 1.23.
Consider `Cc1nnsc1C(=O)N[C@@H](C)c1cc2cc(Cl)ccc2o1`, for which the “% Inhibition” value was -2% and the Z score is 0.25.
The corresponding values for `Cc1c(C(=O)N2CCCCCCC2)cccc1N1CCNC1=O` are -4% and 0.42.
Turning to `O=S(=O)(NC[C@H]1CCCN1c1nccs1)c1cccs1`, the “% Inhibition” value was -3% and the Z score was found to be 0.5.
Regarding `Cc1c(-c2ccc(O)cc2)nc(N)c(C#N)c1-c1c[nH]cn1`, the “% Inhibition” value was -10% and the Z score was found to be 1.55.
As for `CN1CCC(CC(=O)N[C@H]2CC(C)(C)Cc3nc(C(C)(C)C)ncc32)CC1`, the “% Inhibition” value is on record as -21% and the Z score turned out to be 1.86.
In the case of `CN1CCN(Cc2ccccc2)C[C@@]12CCC(=O)N(CC1CC1)CC2`, the “% Inhibition” value is -12% and the Z score is 2.16.
The corresponding values for `Cn1c(CN2CCCCCC2)nnc1C1CCN(c2cccc(C#N)n2)CC1` are 8% and -0.85.
Take `O=C(c1cccnc1)N(C[C@H]1CCOC1)C1CC1`: the “% Inhibition” value was -1% and the Z score is on record as 0.19.
As to `COc1ccc(CN2C(=O)[C@@H]3C(c4ccccc4Cl)=NO[C@@H]3C2=O)cc1`, the “% Inhibition” value was -34% and the Z score came to 4.
As for `O=C(NCc1cc[nH]n1)Nc1cccnc1`, the “% Inhibition” value is -11% and the Z score came to 0.95.
In the case of `CCc1nc(-c2ccccc2)nc(N2CCN(C(=O)c3ccc(F)cc3)CC2)c1Cc1ccc(Cl)cc1`, the “% Inhibition” value is recorded as -4% and the Z score was 0.73.
Consider `O=C(N1CCOCC1)N(C1CC1)[C@H]1CCc2ccccc21`, for which the “% Inhibition” value is on record as -5% and the Z score is on record as 0.72.
For `Cc1ccc(CNC(=O)C2CC2c2ccc3c(c2)OCCO3)n1C` (centres undefined), the “% Inhibition” value is reported as -3% and the Z score is given as 0.46.
The corresponding values for `O=C(Cc1cccc(C(=O)O)c1)NC1CCCC1Oc1ccccc1` (centres undefined) are 4% and -0.36.
In the case of `O=C(N[C@H]1CCS(=O)(=O)C1)c1ccc2cc[nH]c2c1`, the “% Inhibition” value is given as -8% and the Z score was 1.44.
For the molecule `CS(=O)(=O)NCCOc1ccccc1`, the “% Inhibition” value is on record as -18% and the Z score turned out to be 2.39.
As for `COc1ccccc1-c1cn2c(n1)CO[C@@H](CNC1CCCCC1)C2`, the “% Inhibition” value is -14% and the Z score is 1.83.
